# Scores with a large standard error are left out. The source holds two more conditions with little spread; they are left out. Names with del lack the residues named; names with ins carry added residues between the positions named. For some of these results: How much ogerin was present is not stated here.
# B1: GPR68, Q15743 (parent)
# chain: MGNITADNSSMSCTIDHTIHQTLAPVVYVTVLVVGFPANCLSLYFGYLQIKARNELGVYLCNLTVADLFYICSLPFWLQYVLQHDNWSHGDLSCQVCGILLYENIYISVGFLCCISVDRYLAVAHPFRFHQFRTLKAAVGVSVVIWAKELLTSIYFLMHEEVIEDENQHRVCFEHYPIQAWQRAINYYRFLVGFLFPICLLLASYQGILRAVRRSHGTQKSRKDQIQRLVLSTVVIFLACFLPYHVLLLVRSVWEASCDFAKGVFNAYHFSLLLTSFNCVADPVLYCFVSETTHRDLARLRGACLAFLTCSRTGRAREAYPLGAPEASGKSGAQGEEPELLTKLHPAFQTPNSPGSGGFPTGRLA
# Columns and labels:
# [1] = variants of: B1; test: cAMP reporter score (Enrich2 score, wild type = 0); higher = more signal; HEK293T, FACS bins
# [2] = variants of: B1; test: surface expression score (Enrich2 score, wild type = 0); higher = more signal; HEK293T, FACS bins
Variant,cAMP reporter score ([1]; pH 5.5),cAMP reporter score ([1]; pH 6),"cAMP reporter score ([1]; pH 6, modulator: ogerin)","cAMP reporter score ([1]; pH 6.5, modulator: ogerin)",surface expression score [2]
T342del,0.05,-0.87,0.084,-0.176,0.605
E339_L341del,1.23,1.35,1.9,1.02,1.34
L340H,0.9,0.592,1.7,1.34,0.817
L340F,0.471,-0.27,0.22,0.451,0.539
L340Q,1.48,0.513,0.071,1.51,
L340C,1.73,1.08,1.73,0.687,
L340M,0.114,-0.828,-0.249,0.194,-0.092
L340S,1.06,,-0.132,0.349,-0.115
L340N,0.643,0.62,0.303,0.835,0.483
L340E,0.246,-0.327,0.027,0.166,0.605
L340T,0.207,0.514,0.21,-0.007,0.298
L340V,0.708,0.044,0.757,0.064,1.21
L340G,1.03,0.703,1.8,0.926,1.04
L340P,1.07,0.142,2.11,0.63,0.991
L340Y,1.31,1.28,-0.309,,0.418
L340A,0.096,-0.308,0.339,0.371,0.113
L340R,0.342,,0.449,,0.313
L340I,1.21,1.32,0.517,0.865,0.897
L340W,0.789,,0.789,1.09,-0.114
L340K,1.11,0.187,0.602,1.42,1.87
L340D,0.48,0.55,0.899,1.03,0.84
L340_L341insGS,1.84,0.201,2.28,2.51,2.61
T342_K343insG,-0.704,0.435,-0.207,-0.986,-0.612
E336_E337del,1.58,,0.483,1.69,-0.323
E339M,-0.359,-0.808,-0.444,-0.814,0.022

Variant,cAMP reporter score ([1]; pH 5.5),cAMP reporter score ([1]; pH 6),"cAMP reporter score ([1]; pH 6, modulator: ogerin)","cAMP reporter score ([1]; pH 6.5, modulator: ogerin)",surface expression score [2]
E339D,0.789,0.923,0.036,0.71,0.079
E339G,1.51,0.909,1.41,1.26,0.356
E339W,-0.637,-0.896,-0.361,-1.01,-0.852
E339C,0.636,,0.347,-0.538,0.406
E339A,0.797,-0.236,0.853,0.385,0.014
E339F,1.55,,2.7,1.94,2.62
E339L,0.56,,1.22,-0.124,0.143
E339T,0.902,,0.128,0.656,0.108
E339H,0.812,0.775,0.87,0.463,0.665
E339P,-0.148,-1.21,-0.419,0.551,0.091
E339S,1.14,0.882,0.768,1.33,1.51
E339K,-0.035,0.01,-0.335,0.28,0.285
E339Q,-0.444,,-0.509,-1.01,0.567
E339R,1.33,-0.17,0.517,0.539,1.03
E339I,1.09,,0.086,0.226,0.051
E339Y,0.207,-0.269,-0.062,-0.136,-0.32
E339V,0.074,0.979,-0.044,0.921,0.139
A347G,1.74,0.935,2.14,1.78,1.57
A347K,-0.024,,1.85,-0.057,0.898
A347F,-0.538,-1.08,-0.233,0.155,-0.455
A347L,-0.497,-0.877,-0.667,-0.691,-0.888
A347H,-0.03,-0.356,1.48,0.765,1.47
A347E,0.194,,0.801,1.96,0.92
A347C,0.751,-0.282,0.847,0.288,0.943
A347D,-0.307,0.025,-0.714,-0.63,-1.16

Variant,cAMP reporter score ([1]; pH 5.5),cAMP reporter score ([1]; pH 6),"cAMP reporter score ([1]; pH 6, modulator: ogerin)","cAMP reporter score ([1]; pH 6.5, modulator: ogerin)",surface expression score [2]
A347I,0.221,0.308,0.103,0.528,0.525
H345_P346insGS,1.33,0.819,1.16,1.65,1.68
T342_K343insGS,0.682,1.42,1.18,1.48,1.57
P346_A347insGSG,-0.369,0.994,0.428,0.866,0.866
H345_P346insG,1.17,1.88,0.995,0.935,0.808
P338_E339insG,0.19,-0.681,0.551,0.676,0.463
E337L,-0.119,-0.056,-0.516,-0.405,-0.419
E337I,0.455,0.279,1.3,-0.455,2.3
E337M,-0.555,-0.438,0.665,,0.686
E337G,1.63,0.825,2.09,1.35,0.775
E337Y,-0.469,0.859,-0.329,-0.201,-0.731
E337K,-0.165,0.396,-0.268,-0.34,-0.776
E337C,-0.427,-1.74,0.773,0.269,
E337R,0.153,-1.06,0.238,0.273,-0.133
E337F,1.09,-0.675,-0.306,-0.191,0.04
E337S,0.313,,-0.703,-1.98,2.08
E337P,0.221,0.014,0.212,0.523,-0.088
E337A,0.755,0.901,1.09,1.23,-0.135
E337Q,1.29,0.738,1.25,1.45,0.19
E337N,0.54,-0.187,0.89,0.919,0.392
E337H,-0.16,0.296,-0.258,-0.638,-0.288
E337D,0.361,-0.244,0.109,0.274,-0.064
E337W,-0.115,-0.643,0.01,-0.207,
L344_H345insGSG,1.01,,1.02,1.16,0.862
P346_A347insG,1.91,,1.15,0.896,1.98

Variant,cAMP reporter score ([1]; pH 5.5),cAMP reporter score ([1]; pH 6),"cAMP reporter score ([1]; pH 6, modulator: ogerin)","cAMP reporter score ([1]; pH 6.5, modulator: ogerin)",surface expression score [2]
E336Q,0.546,0.063,0.899,-0.199,0.627
E336N,0.263,0.028,0.626,0.387,-0.281
E336F,0.693,-0.255,1.29,0.887,0.298
E336H,0.568,1.38,1.82,0.166,0.332
E336S,-0.582,,0.003,,-0.135
E336K,0.257,0.289,0.036,-0.046,-0.049
E336P,0.807,-0.674,0.645,1.06,0.39
E336T,-0.497,1.58,0.525,1.43,0.183
E336L,0.995,,1.53,0.981,-0.031
E336C,0.839,-0.053,0.978,1.06,-0.338
E336D,-0.524,0.722,-0.406,-0.534,-0.421
E336Y,0.226,-0.405,0.284,-0.122,-0.585
E336W,-0.771,0.016,-0.338,-0.486,-0.364
E336G,1.15,,0.014,-0.933,-0.369
E336R,0.622,0.166,1.37,0.148,0.458
E336I,0.111,0.044,0.233,0.116,0.763
E336M,0.009,0.462,0.305,-0.127,-0.794
E336V,0.768,-1,0.203,0.891,-0.186
H345_A347del,0.13,-1.3,-0.129,0.408,-0.056
E339_L340insG,0.845,-1.29,0.047,1.03,0.334
E337_P338insG,0.022,-0.676,0.261,-0.278,-0.351
L344_H345del,0.545,1.78,0.163,0.806,1.06
L340_T342del,0.629,1.79,0.752,1.84,0.737
K343_L344insGSG,0.296,,0.564,0.383,0.527
L341_K343del,0.774,-0.001,0.704,1.71,0.745

Variant,cAMP reporter score ([1]; pH 5.5),cAMP reporter score ([1]; pH 6),"cAMP reporter score ([1]; pH 6, modulator: ogerin)","cAMP reporter score ([1]; pH 6.5, modulator: ogerin)",surface expression score [2]
H345del,-0.49,-0.729,-1.11,-0.81,-0.45
P346_A347insGS,-0.019,0.453,-0.238,-0.058,0.643
K343_L344del,-0.013,0.76,0.628,0.927,0.597
L344_P346del,0.617,0.173,1.03,1.11,0.527
L340_L341insGSG,0.975,0.688,1.22,1.56,1.09
K343del,1.63,-0.533,-0.439,,-0.296
T342V,1.65,,0.946,2.4,0.892
T342E,0.455,0.495,0.043,-0.059,0.255
T342K,0.539,0.26,0.589,1.64,1.56
T342S,0.273,-0.382,0.684,1.02,0.453
T342M,1.13,0.103,1.34,0.501,2.07
T342Q,0.392,-0.039,0.492,0.606,0.774
T342C,0.319,1.44,0.642,0.018,0.977
T342N,-0.211,0.138,0.525,0.65,0.59
T342A,0.88,0.203,1.36,-0.032,0.97
T342W,0.642,-0.093,0.361,-0.367,-0.045
T342F,0.042,,0.263,0.327,-0.597
T342D,-0.62,0.882,0.64,1.79,0.929
T342L,1.37,-0.065,1.04,1.37,0.521
T342H,0.341,0.485,1.18,1.23,1.77
T342G,0.059,1.02,0.24,0.929,1.43
T342R,0.839,0.588,1.57,0.668,0.415
T342Y,1.6,1.67,1.26,2.21,1.3
T342I,-0.113,0.066,-0.122,-0.493,-0.181
T342P,0.673,1.38,1.47,1.24,0.904

# — the GPR68 mutational scans of Howard et al. (2025)
